# Reference: the supplement of paper PMC8728848
# Some of the results follow.
# B1: OrfX (Escherichia coli), Q9X4B6_ECOLX (protein)
# chain: MIKIARIAVTLGLLSSLGAQAYAAGLVVNDNDLRNDLAWLSDRGVIHLSLSTWPLSQEEIARALKKAKPSYSSEQVVLARINQRLSALKADFRVTGYTSTDQPGTPQGFGQTQPADNSLGLAFNNSGEWWDVHLQGNVEGGERISNGSRFNANGAYGAVKFWNQWLSFGQVPQWWGPGYEGSLIRGDAMRPMTGFLMQRAEQAAPETWWLRWVGPWQYQISASQMNQYTAVPHAKIIGGRFTFTPFQSLELGASRIMQWGGEGRPQSFSSFWDGFTGHDNTGTDNEPGNQLAGFDFKFKLEPTLGWPVSFYGQMVGEDESGYLPSANMFLGGVEGHHGWGKDTVNWYVEAHDTRTNMSRTNYSYTHHIYKDGYYQQGYPLGDAMGGDGQLIAGKVELITEDNQRWSTRLVYAKVNPENQSINKAFPHADTLKGLQLGWSGDVYQSVRLNTSLWYTNANNSDSDDVGASAGIEIPFSL
# Columns and labels:
# Assay in all cases: glycan array binding signal (z-score within array); higher = stronger binding
# Details in all cases: glycan notation: IUPAC condensed, linker removed
# [1] = target: Gal(b1-3)GlcNAc(b1-3)Gal(b1-3)GlcNAc
# Procedure, shortened: (§1)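 The binding signal is a Z-score computed within each array. Data were drawn from 3228 arrays in the Consortium for Functional Glycomics database, restricted to those with a known protein sequence. Scores were averaged over arrays of the same protein sequence at different concentrations or buffers, and over linkers, and negative values can be taken as non-binding.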
# [2] = target: Gal(b1-3)GlcNAc(b1-3)Gal(b1-4)Glc
# Procedure, shortened: as §1
# [3] = target: Gal(b1-3)GlcNAc(b1-3)Gal(b1-4)GlcNAc
# Procedure, shortened: as §1
# [4] = target: Gal(b1-3)GlcNAc(b1-3)Gal(b1-4)GlcNAc(b1-6)[Gal(b1-3)GlcNAc(b1-3)]Gal(b1-4)Glc
# Procedure, shortened: as §1
# [5] = target: Gal(b1-3)GlcNAc(b1-3)Gal(b1-4)[Fuc(a1-3)]GlcNAc(b1-6)[Gal(b1-3)GlcNAc(b1-3)]Gal(b1-4)Glc
# Procedure, shortened: as §1
# [6] = target: Gal(b1-3)GlcNAc(b1-3)GalNAc
# Procedure, shortened: as §1
# [7] = target: Gal(b1-3)GlcNAc(b1-6)Gal(b1-4)GlcNAc
# Procedure, shortened: as §1
# [8] = target: Gal(b1-3)GlcNAc(b1-6)GalNAc
# Procedure, shortened: as §1
# Gal(b1-3)GlcNAc6S = target: Gal(b1-3)GlcNAc6S
# Procedure, shortened: as §1
# [9] = target: Gal(b1-3)[Fuc(a1-4)]GlcNAc
# Procedure, shortened: as §1
# [10] = target: Gal(b1-3)[Fuc(a1-4)]GlcNAc(b1-2)Man(a1-3)[Gal(b1-3)[Fuc(a1-4)]GlcNAc(b1-2)Man(a1-6)]Man(b1-4)GlcNAc(b1-4)[Fuc(a1-6)]GlcNAc
# Procedure, shortened: as §1
# [11] = target: Gal(b1-3)[Fuc(a1-4)]GlcNAc(b1-3)Gal(b1-3)[Fuc(a1-4)]GlcNAc
# Procedure, shortened: as §1
# [12] = target: Gal(b1-3)[Fuc(a1-4)]GlcNAc(b1-3)Gal(b1-4)GlcNAc
# Procedure, shortened: as §1
# [13] = target: Gal(b1-3)[Fuc(a1-4)]GlcNAc(b1-3)Gal(b1-4)[Fuc(a1-3)]GlcNAc
# Procedure, shortened: as §1
# [14] = target: Gal(b1-3)[Fuc(a1-4)]GlcNAc(b1-6)GalNAc
# Procedure, shortened: as §1
# [15] = target: Gal(b1-3)[GlcNAc(b1-6)]GalNAc
# Procedure, shortened: as §1
# [16] = target: Gal(b1-3)[Neu5Ac(a2-6)]GalNAc
# Procedure, shortened: as §1
# [17] = target: Gal(b1-3)[Neu5Ac(a2-6)]GlcNAc(b1-6)Gal(b1-4)Glc
# Procedure, shortened: as §1
# [18] = target: Gal(b1-3)[Neu5Ac(b2-6)]GalNAc
# Procedure, shortened: as §1
# Gal(b1-4)Gal = target: Gal(b1-4)Gal
# Procedure, shortened: as §1
# [19] = target: Gal(b1-4)GalNAc(a1-3)[Fuc(a1-2)]Gal(b1-4)GlcNAc
# Procedure, shortened: as §1
# [20] = target: Gal(b1-4)GalNAc(b1-3)[Fuc(a1-2)]Gal(b1-4)GlcNAc
# Procedure, shortened: as §1
# Gal(b1-4)Glc = target: Gal(b1-4)Glc
# Procedure, shortened: as §1
# Gal(b1-4)Glc6S = target: Gal(b1-4)Glc6S
# Procedure, shortened: as §1
# Gal(b1-4)GlcNAc = target: Gal(b1-4)GlcNAc
# Procedure, shortened: as §1
# [21] = target: Gal(b1-4)GlcNAc(a1-6)Gal(b1-4)GlcNAc
# Procedure, shortened: as §1
# Gal(b1-4)GlcNAc(b1-2)Man = target: Gal(b1-4)GlcNAc(b1-2)Man
# Procedure, shortened: as §1
# [22] = target: Gal(b1-4)GlcNAc(b1-2)Man(a1-3)Man(b1-4)GlcNAc(b1-4)GlcNAc
# Procedure, shortened: as §1
# [23] = target: Gal(b1-4)GlcNAc(b1-2)Man(a1-3)[Gal(b1-4)GlcNAc(b1-2)Man(a1-6)]Man(b1-4)GlcNAc(b1-4)GlcNAc
# Procedure, shortened: as §1
# [24] = target: Gal(b1-4)GlcNAc(b1-2)Man(a1-3)[Gal(b1-4)GlcNAc(b1-2)Man(a1-6)]Man(b1-4)GlcNAc(b1-4)[Fuc(a1-6)]GlcNAc
# Procedure, shortened: as §1
# [25] = target: Gal(b1-4)GlcNAc(b1-2)Man(a1-3)[Gal(b1-4)GlcNAc(b1-2)][GlcNAc(b1-4)]Man(b1-4)GlcNAc(b1-4)GlcNAc
# Procedure, shortened: as §1
# [26] = target: Gal(b1-4)GlcNAc(b1-2)Man(a1-3)[GlcNAc(b1-2)Man(a1-6)]Man(b1-4)GlcNAc(b1-4)GlcNAc
# Procedure, shortened: as §1
# [27] = target: Gal(b1-4)GlcNAc(b1-2)Man(a1-3)[Man(a1-6)]Man(b1-4)GlcNAc(b1-4)GlcNAc
# Procedure, shortened: as §1
# [28] = target: Gal(b1-4)GlcNAc(b1-2)Man(a1-6)Man(b1-4)GlcNAc(b1-4)GlcNAc
# Procedure, shortened: as §1
# [29] = target: Gal(b1-4)GlcNAc(b1-2)Man(a1-6)[GlcNAc(b1-2)Man(a1-3)]Man(b1-4)GlcNAc(b1-4)GlcNAc
# Procedure, shortened: as §1
# [30] = target: Gal(b1-4)GlcNAc(b1-2)Man(a1-6)[Man(a1-3)]Man(b1-4)GlcNAc(b1-4)GlcNAc
# Procedure, shortened: as §1
# [31] = target: Gal(b1-4)GlcNAc(b1-2)[Gal(b1-4)GlcNAc(b1-4)]Man(a1-3)[Gal(b1-4)GlcNAc(b1-2)Man(a1-6)]Man(b1-4)GlcNAc(b1-4)GlcNAc
# Procedure, shortened: as §1
# [32] = target: Gal(b1-4)GlcNAc(b1-2)[Gal(b1-4)GlcNAc(b1-4)]Man(a1-3)[Gal(b1-4)GlcNAc(b1-2)[Gal(b1-4)GlcNAc(b1-6)]Man(a1-6)]Man(b1-4)GlcNAc(b1-4)GlcNAc
# Procedure, shortened: as §1
binder,measurement,setting,value
B1,glycan array binding signal (z-score),[1],-0.076
same,glycan array binding signal (z-score),[2],0.161
same,glycan array binding signal (z-score),[3],-0.06
same,glycan array binding signal (z-score),[4],-0.384
same,glycan array binding signal (z-score),[5],-0.424
same,glycan array binding signal (z-score),[6],-0.321
same,glycan array binding signal (z-score),[7],-0.048
same,glycan array binding signal (z-score),[8],-0.097
same,glycan array binding signal (z-score),Gal(b1-3)GlcNAc6S,0.065
same,glycan array binding signal (z-score),[9],-0.209
same,glycan array binding signal (z-score),[10],0.716
same,glycan array binding signal (z-score),[11],-0.339
same,glycan array binding signal (z-score),[12],-0.238
same,glycan array binding signal (z-score),[13],-0.26
same,glycan array binding signal (z-score),[14],-0.074
same,glycan array binding signal (z-score),[15],0.022
same,glycan array binding signal (z-score),[16],-0.292
same,glycan array binding signal (z-score),[17],-0.207
same,glycan array binding signal (z-score),[18],-0.066
same,glycan array binding signal (z-score),Gal(b1-4)Gal,-0.226
same,glycan array binding signal (z-score),[19],-0.257
same,glycan array binding signal (z-score),[20],-0.145
same,glycan array binding signal (z-score),Gal(b1-4)Glc,0.071
same,glycan array binding signal (z-score),Gal(b1-4)Glc6S,-0.219
same,glycan array binding signal (z-score),Gal(b1-4)GlcNAc,-0.185
same,glycan array binding signal (z-score),[21],-0.185
same,glycan array binding signal (z-score),Gal(b1-4)GlcNAc(b1-2)Man,-0.061
same,glycan array binding signal (z-score),[22],-0.266
same,glycan array binding signal (z-score),[23],-0.203
same,glycan array binding signal (z-score),[24],-0.188
same,glycan array binding signal (z-score),[25],-0.295
same,glycan array binding signal (z-score),[26],-0.214
same,glycan array binding signal (z-score),[27],-0.226
same,glycan array binding signal (z-score),[28],-0.207
same,glycan array binding signal (z-score),[29],-0.193
same,glycan array binding signal (z-score),[30],-0.273
same,glycan array binding signal (z-score),[31],-0.233
same,glycan array binding signal (z-score),[32],-0.359
